Some of the results follow. Single values are uncertain, as repeats are few or missing.
The compounds below were run on RPMI7951 (assay: cell count relative to DMSO control; melanoma cells; higher = more viable cells). Conditions: library dose: standard library concentration; 72 h.
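Further: cells treated in 1,536-well plates, then fixed and DAPI-stained, with nuclei counted from automated high-throughput microscope images.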

| Structure (SMILES) | cell count [%] |
| --- | --- |
| CCN(CC)CCNC(=O)c1c(C)[nH]c(/C=C2\C(=O)Nc3ccc(F)cc32)c1C [sunitinib] + CCCS(=O)(=O)Nc1ccc(F)c(C(=O)c2c[nH]c3ncc(Cl)cc23)c1F [PLX4720] (first compound 2 µM, partner dose 0.4 µM) | 92.6 |
| C[C@]1(O)C[C@@H](c2nc(-c3ccc4ccc(-c5ccccc5)nc4c3)c3c(N)nccn32)C1 + Nc1cccc2c1CN(C1CCC(=O)NC1=O)C2=O [lenalidomide] (first compound 2 µM, partner dose 5 µM) | 99.5 |
| Cn1cnc2c(F)c(Nc3ccc(Br)cc3Cl)c(C(=O)NOCCO)cc21 [selumetinib] + CCc1ccc(CCOc2ccc(CC3SC(=O)NC3=O)cc2)nc1 [pioglitazone] (first compound 0.075 µM, partner dose 10 µM) | 129 |
| CCN(CC)CCNC(=O)c1c(C)[nH]c(/C=C2\C(=O)Nc3ccc(F)cc32)c1C [sunitinib] + CCCCCCCCc1ccc(CCC(N)(CO)CO)cc1 [fingolimod] (first compound 2 µM, partner dose 10 µM) | 2.8 |
| CCN(CC)CCNC(=O)c1c(C)[nH]c(/C=C2\C(=O)Nc3ccc(F)cc32)c1C [sunitinib] + NCC(=O)Nc1ccc(-n2nc(C(F)(F)F)cc2-c2ccc3c(ccc4ccccc43)c2)cc1 [OSU03012] (first compound 2 µM, partner dose 5 µM) | 51.6 |
| Cn1cnc2c(F)c(Nc3ccc(Br)cc3Cl)c(C(=O)NOCCO)cc21 [selumetinib] + O=C(O)C(=O)Nc1sc2c(c1C(=O)O)CCNC2 [TCS401] (first compound 0.075 µM, partner dose 8.33333 µM) | 118 |
| COc1cc([C@@H]2c3cc4c(cc3[C@@H](O[C@@H]3O[C@@H]5CO[C@@H](C)O[C@H]5[C@H](O)[C@H]3O)[C@H]3COC(=O)[C@H]23)OCO4)cc(OC)c1O [etoposide] + C=C(c1ccc(C(=O)O)cc1)c1cc2c(cc1C)C(C)(C)CCC2(C)C [Bexarotene] (first compound 0.1 µM, partner dose 10 µM) | 68.6 |
| C[C@]1(O)C[C@@H](c2nc(-c3ccc4ccc(-c5ccccc5)nc4c3)c3c(N)nccn32)C1 + C=C(c1ccc(C(=O)O)cc1)c1cc2c(cc1C)C(C)(C)CCC2(C)C [Bexarotene] (first compound 2 µM, partner dose 10 µM) | 51 |
| C[C@]1(O)C[C@@H](c2nc(-c3ccc4ccc(-c5ccccc5)nc4c3)c3c(N)nccn32)C1 + NC1(c2ccc(-c3nc4ccn5c(=O)[nH]nc5c4cc3-c3ccccc3)cc2)CCC1 [MK2206] (first compound 2 µM, partner dose 2 µM) | 84.6 |
| COc1cc([C@@H]2c3cc4c(cc3[C@@H](O[C@@H]3O[C@@H]5CO[C@@H](C)O[C@H]5[C@H](O)[C@H]3O)[C@H]3COC(=O)[C@H]23)OCO4)cc(OC)c1O [etoposide] + Cn1c(Nc2ccc(C(F)(F)F)cc2)nc2cc(Oc3ccnc(-c4ncc(C(F)(F)F)[nH]4)c3)ccc21 [CHIR265] (first compound 0.1 µM, partner dose 0.4 µM) | 52.4 |
| Cn1cnc2c(F)c(Nc3ccc(Br)cc3Cl)c(C(=O)NOCCO)cc21 [selumetinib] + O=c1cc(-c2cccc3c2Sc2ccccc2S3)oc(N2CCOCC2)c1 [KU55933] (first compound 0.075 µM, partner dose 5 µM) | 83.3 |
| C[C@]1(O)C[C@@H](c2nc(-c3ccc4ccc(-c5ccccc5)nc4c3)c3c(N)nccn32)C1 + Nc1ncn([C@H]2C[C@H](O)[C@@H](CO)O2)c(=O)n1 [decitabine] (first compound 2 µM, partner dose 0.5 µM) | 59.8 |
| COc1cc([C@@H]2c3cc4c(cc3[C@@H](O[C@@H]3O[C@@H]5CO[C@@H](C)O[C@H]5[C@H](O)[C@H]3O)[C@H]3COC(=O)[C@H]23)OCO4)cc(OC)c1O [etoposide] + O=C(Nc1ccccc1)c1cc([N+](=O)[O-])ccc1Cl [GW9662] (first compound 0.1 µM, partner dose 10 µM) | 69 |
| CCN(CC)CCNC(=O)c1c(C)[nH]c(/C=C2\C(=O)Nc3ccc(F)cc32)c1C [sunitinib] + NC1(c2ccc(-c3nc4ccn5c(=O)[nH]nc5c4cc3-c3ccccc3)cc2)CCC1 [MK2206] (first compound 2 µM, partner dose 2 µM) | 75 |
| Cn1cnc2c(F)c(Nc3ccc(Br)cc3Cl)c(C(=O)NOCCO)cc21 [selumetinib] + COCC[n+]1c2c(n(Cc3cnccn3)c1C)C(=O)c1ccccc1C2=O [YM155] (first compound 0.075 µM, partner dose 0.002 µM) | 41.7 |
| Cn1cnc2c(F)c(Nc3ccc(Br)cc3Cl)c(C(=O)NOCCO)cc21 [selumetinib] + NC1(c2ccc(-c3nc4ccn5c(=O)[nH]nc5c4cc3-c3ccccc3)cc2)CCC1 [MK2206] (first compound 0.075 µM, partner dose 2 µM) | 108 |
| COc1cc([C@@H]2c3cc4c(cc3[C@@H](O[C@@H]3O[C@@H]5CO[C@@H](C)O[C@H]5[C@H](O)[C@H]3O)[C@H]3COC(=O)[C@H]23)OCO4)cc(OC)c1O [etoposide] + COc1cc(Nc2ncc(F)c(Nc3ccc4c(n3)NC(=O)C(C)(C)O4)n2)cc(OC)c1OC [Tamatinib] (first compound 0.1 µM, partner dose 2 µM) | 40.6 |
| Cn1cnc2c(F)c(Nc3ccc(Br)cc3Cl)c(C(=O)NOCCO)cc21 [selumetinib] + CC(C)C[C@H](NC(=O)[C@H](Cc1ccccc1)NC(=O)c1cnccn1)B(O)O [Bortezomib] (first compound 0.075 µM, partner dose 0.005 µM) | 5.54 |
| COc1cc([C@@H]2c3cc4c(cc3[C@@H](O[C@@H]3O[C@@H]5CO[C@@H](C)O[C@H]5[C@H](O)[C@H]3O)[C@H]3COC(=O)[C@H]23)OCO4)cc(OC)c1O [etoposide] + Oc1nc(-c2ccc(C(F)(F)F)cc2)nc2c1CSCC2 [XAV939] (first compound 0.1 µM, partner dose 10 µM) | 75.3 |
| COc1cc([C@@H]2c3cc4c(cc3[C@@H](O[C@@H]3O[C@@H]5CO[C@@H](C)O[C@H]5[C@H](O)[C@H]3O)[C@H]3COC(=O)[C@H]23)OCO4)cc(OC)c1O [etoposide] + COc1ccc(C2=N[C@@H](c3ccc(Cl)cc3)[C@@H](c3ccc(Cl)cc3)N2C(=O)N2CCNC(=O)C2)c(OC(C)C)c1 [Nutlin-3] (first compound 0.1 µM, partner dose 0.5 µM) | 106 |
| Cn1cnc2c(F)c(Nc3ccc(Br)cc3Cl)c(C(=O)NOCCO)cc21 [selumetinib] + COc1ccc(COc2ccc(Cc3cnc(N)nc3N)cc2OC)cc1 [GW2580] (first compound 0.075 µM, partner dose 5 µM) | 168 |
| C[C@]1(O)C[C@@H](c2nc(-c3ccc4ccc(-c5ccccc5)nc4c3)c3c(N)nccn32)C1 + Cn1c(=O)n(-c2ccc(C(C)(C)C#N)cc2)c2c3cc(-c4cnc5ccccc5c4)ccc3ncc21 [NVP-BEZ235] (first compound 2 µM, partner dose 0.02 µM) | 45.9 |
| Cn1cnc2c(F)c(Nc3ccc(Br)cc3Cl)c(C(=O)NOCCO)cc21 [selumetinib] + O=C(O)c1ccc(-c2c[nH]c3ncc(-c4ccccc4)cc23)cc1C1CCCC1 [GSK650394] (first compound 0.075 µM, partner dose 0.8 µM) | 89.5 |
| COc1cc([C@@H]2c3cc4c(cc3[C@@H](O[C@@H]3O[C@@H]5CO[C@@H](C)O[C@H]5[C@H](O)[C@H]3O)[C@H]3COC(=O)[C@H]23)OCO4)cc(OC)c1O [etoposide] + COc1ccc2c(c1)CCC1C2CCC2(C)C(NCCCCCCN3C(=O)C=CC3=O)CCC12 [U73122] (first compound 0.1 µM, partner dose 2 µM) | 37 |
| COc1cc([C@@H]2c3cc4c(cc3[C@@H](O[C@@H]3O[C@@H]5CO[C@@H](C)O[C@H]5[C@H](O)[C@H]3O)[C@H]3COC(=O)[C@H]23)OCO4)cc(OC)c1O [etoposide] + COc1ccc(-c2ccc3c(N4CCOCC4)nc(N4C[C@@H](C)O[C@@H](C)C4)nc3n2)cc1CO [KU0063794] (first compound 0.1 µM, partner dose 0.1 µM) | 79.2 |
| COc1cc([C@@H]2c3cc4c(cc3[C@@H](O[C@@H]3O[C@@H]5CO[C@@H](C)O[C@H]5[C@H](O)[C@H]3O)[C@H]3COC(=O)[C@H]23)OCO4)cc(OC)c1O [etoposide] + Cc1cc(N2CCOCC2)cc2[nH]c(-c3c(NC[C@@H](O)c4cccc(Cl)c4)cc[nH]c3=O)nc12 [BMS536924] (first compound 0.1 µM, partner dose 1 µM) | 107 |
| Cn1cnc2c(F)c(Nc3ccc(Br)cc3Cl)c(C(=O)NOCCO)cc21 [selumetinib] + CN1CCN(c2ccc3nc(-c4c(N)c5c(F)cccc5[nH]c4=O)[nH]c3c2)CC1 [Dovitinib] (first compound 0.075 µM, partner dose 0.5 µM) | 75.4 |
| C[C@]1(O)C[C@@H](c2nc(-c3ccc4ccc(-c5ccccc5)nc4c3)c3c(N)nccn32)C1 + O=S(=O)(c1ccccc1)N(CC(F)(F)F)c1ccc(C(O)(C(F)(F)F)C(F)(F)F)cc1 [T0901317] (first compound 2 µM, partner dose 7 µM) | 79.8 |
